In all, about 360,000 compounds went through this assay and about 7,500 (2.1%) were called active. This list was built around the results that the source calls inconclusive (neither active nor inactive); the mix of calls is not that of the screen. The call rests on the fitted dose curve; in most records, active means well fitted cell-killing curve with a large enough effect; inconclusive means small, poorly fitted or top-dose-only effect, or effect the other way, or another doubt; inactive means no such curve, though single readings can be large or run the other way. No potency is given beside an inconclusive call; the fits are too rough.
Assay: qHTS for induction of synthetic lethality in tumor cells producing 2HG: qHTS for the HT-1080-IDH1KD cell line
Conditions: HT-1080 IDH1 knockdown viability, ATP luminescence, 48 h; series mostly up to 46.1 µM
Outline: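 In this qHTS, HT-1080 cells depleted of IDH1 are exposed for 48 h at 37 °C to compound titrations. Toxicity is scored from CellTiter-Glo luminescence, with DMSO as full viability and medium alone as none.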
For `CCSc1nccc(-c2nn(-c3ccc(C)cc3)ccc2=O)n1`, the Potency was active: 9.2 µM. With `CC1CCc2nc(NC(=O)CN3CCN(Cc4ccc5c(c4)OCO5)CC3)sc2C1` (configuration not stated) the Potency was inconclusive [cytotoxic, single point]. In the case of `CCN1C(=O)[C@H]2[C@@H](c3ccc(-c4ccc(C(C)=O)cc4)cc3)N[C@@](Cc3ccccc3)(C(=O)OC)[C@H]2C1=O`, the Potency is reported as “inactive”. In the case of `Cc1cc(C(=O)N(C2CCCCC2)C2CCCCC2)no1`, the Potency is reported as “inactive”. With `Cc1ccc(C(CNC(=O)Nc2ccc(Cl)cc2)N2CCN(C)CC2)cc1` (configuration not stated) the Potency was inconclusive [cytotoxic, single point]. For `Cc1ccc(-c2csc3ncnc(Nc4ccc(N5CCOCC5)cc4)c23)cc1`, the Potency was inconclusive [cytotoxic, single point]. With `COc1ccc([C@H]2CC(=O)C=C(c3ccc(OC)cc3OC)C2)cc1` the Potency was active: 2.06 µM. For `CCOc1ccccc1/C=C/C(=O)NCC(=O)N1CCC(N(C)C2CCCCC2C)CC1` (configuration not stated), the Potency was “inactive”. With `COc1ccc(N2C(=O)CSC23C(=O)N(CC(=O)NC2CCCC2)c2ccccc23)cc1` (configuration not stated) the Potency was inconclusive [rising, single point]. In the case of `CCOC(=O)C1=C(C)N(C)C(C)=C(C(=O)OCC)C1c1ccc(Cl)cc1`, the Potency is reported as active: 23.1 µM. For `CCOc1ccccc1NC(=O)CCNS(=O)(=O)c1ccccc1`, the Potency was “inactive”. In the case of `CC(=O)Nc1ccc(S(=O)(=O)N2CCN(S(=O)(=O)c3ccc(NC(C)=O)cc3)CC2)cc1`, the Potency is reported as “inactive”. In the case of `Cc1ccc(NC(=O)CC(=O)NCCN2CCOCC2)cc1`, the Potency is reported as inconclusive [rising, single point]. With `COc1ccc(C(=O)C23CC4CC(C2)CC(C(=O)c2ccc(OC)cc2)(C4)C3)cc1` the Potency was “inactive”. In the case of `Cc1c(C)n2c(SCC(=O)Nc3cccc4ccccc34)nnc2[nH]c1=O`, the Potency is reported as “inactive”. With `Cc1ncsc1CCOC(=O)C1C2CC3CC(C2)CC1C3` (configuration not stated) the Potency was inconclusive [cytotoxic, single point]. With `COc1ccc([C@H]2CC(=O)C=C(c3cc(F)ccc3OC)C2)cc1` the Potency was inconclusive [cytotoxic, partial curve]. With `COc1cc(C2NC(=O)NC(C)=C2C(=O)OC2CCCCC2)cc(Cl)c1O` (configuration not stated) the Potency was inconclusive [cytotoxic, single point]. With `CCC(O)C1CCN(Cc2cn(-c3ccc(OC)cc3)nc2-c2cccc(F)c2)CC1` (configuration not stated) the Potency was active: 14.6 µM. In the case of `COc1cccc(Oc2cn[nH]c2-c2ccc(OC)cc2O)c1`, the Potency is reported as inconclusive [cytotoxic, single point]. In the case of `CC(C)(O)C#Cc1ccc(CNC[C@H]2O[C@@H](n3cnc4c(N)ncnc43)[C@H](O)[C@@H]2O)s1`, the Potency is reported as “inactive”. In the case of `Cc1ccc(-c2cc(-c3ccccc3[N+](=O)[O-])[nH]n2)c(O)c1`, the Potency is reported as inconclusive [cytotoxic, single point]. For `O=C(Nc1ccc2c(c1)CN(C(=O)Nc1ccc(F)cc1)CC2)c1ccccn1`, the Potency was inconclusive [cytotoxic, single point]. In the case of `CNC(C)C(=O)NC(C(=O)NC(C(=O)Nc1cccc2ccccc12)C(C)C)C(C)C` (configuration not stated), the Potency is reported as inconclusive [cytotoxic, single point]. In the case of `CCOc1cc(CNCCSc2nnnn2C)cc(Br)c1OCc1ccccc1F`, the Potency is reported as inconclusive [cytotoxic, single point]. In the case of `COc1cccc(/C=C/C2=CC(C)(C)NC(=S)N2)c1`, the Potency is reported as inconclusive [cytotoxic, single point]. With `CC1CCCCC12NC(=O)N(CC(=O)OCC(=O)N(C)C1CCCCC1)C2=O` (configuration not stated) the Potency was “inactive”. In the case of `Cc1cc(CNC(=O)COc2c(F)c(F)cc(F)c2F)c2ccccc2n1`, the Potency is reported as inconclusive [cytotoxic, single point]. In the case of `COc1ccc(S(=O)(=O)N(C)C[C@@H]2Oc3cc(Br)ccc3S(=O)(=O)N([C@H](C)CO)C[C@@H]2C)cc1`, the Potency is reported as inconclusive [cytotoxic, single point]. For `COc1cccc(/C=C/c2nc(C#N)c(NCC(C)C)o2)c1`, the Potency was inconclusive [cytotoxic, single point]. With `C=C(C)COc1ccc(-c2n[nH]c(C)c2-c2ccccc2)c(O)c1` the Potency was inconclusive [cytotoxic, single point]. For `Cc1ccc2cccc(OC(=O)/C=C\c3ccccc3)c2n1`, the Potency was “inactive”. With `COc1cccc2c1C1COC3C4CC(C(=O)O)C(C(C2)N13)N4C` (configuration not stated) the Potency was active: 7.31 µM. With `Cc1cc(C)cc(N/C(N)=N/c2nc(C)cc(C)n2)c1` the Potency was “inactive”. With `COc1ccc(Cn2c(SCc3ccc(C)cc3)nc3cc(OC)c(OC)cc3c2=N)cc1Cl` the Potency was active: 23.1 µM. With `CCn1cc(C(=O)OCC(=O)c2cc(C)n(-c3ccc(OC(F)F)cc3)c2C)c(=O)c2ccc(C)nc21` the Potency was “inactive”. With `CCN(CC)S(=O)(=O)c1ccc(NC(=O)C(C)N(c2ccc(OC)cc2)S(C)(=O)=O)cc1` (configuration not stated) the Potency was “inactive”. For `O=C(CSc1nc2ccccc2o1)NC1CCS(=O)(=O)C1` (configuration not stated), the Potency was “inactive”. For `Cc1cccc(-n2c(C)cc(/C=C3\NC(=O)NC3=O)c2C)c1`, the Potency was inconclusive [cytotoxic, single point]. For `COc1ccc(Cc2nnc(NC(=O)Nc3ccccc3)s2)cc1OC`, the Potency was inconclusive [cytotoxic, single point]. With `CCOC(=O)C1CCCN(C2CCN(Cc3nc(-c4ccccc4)no3)CC2)C1` (configuration not stated) the Potency was “inactive”. For `COc1cc(C(=O)NC2CCCC2)c(Br)c(OC)c1OC`, the Potency was “inactive”. With `CC(=O)Nc1ccc(S(=O)(=O)NC2=C(N3CCN(Cc4ccccc4)CC3)C(=O)c3ccccc3C2=O)cc1` the Potency was inconclusive [cytotoxic, partial curve]. For `O=C(CCl)Nc1cc(S(=O)(=O)N2CCCCCC2)ccc1Cl`, the Potency was inconclusive [cytotoxic, single point]. With `O=C(COc1ccccc1Br)NCc1ccccn1` the Potency was inconclusive [cytotoxic, single point]. For `CCOc1ccccc1Nc1nnc(SC(C)C(=O)Nc2nc(-c3ccccc3)cs2)s1` (configuration not stated), the Potency was “inactive”. With `CC1=CC(=O)C(C(C)C)=C/C1=C(\c1cc(C(C)C)c(OP(=O)(O)O)cc1C)c1ccccc1C(=O)O` the Potency was active: 23.1 µM. With `Cc1cccn2c(=O)c(/C=C(\C#N)C(=O)NC3CCS(=O)(=O)C3)c(N3CCC(C(N)=O)CC3)nc12` (configuration not stated) the Potency was “inactive”. In the case of `Cc1ccc[n+](CC(=O)Nc2ccc([N+](=O)[O-])cc2)c1`, the Potency is reported as active: 16.4 µM. In the case of `CNC(=O)c1ccc(NC(=O)/C=C/c2cccc(F)c2)cc1`, the Potency is reported as inconclusive [cytotoxic, single point]. In the case of `CCCc1cc(=O)[nH]c(SCC(=O)Nc2sc(C(N)=O)c(C)c2C(=O)OCCOC)n1`, the Potency is reported as active: 2.59 µM. For `CN(C)CCCN(C(=O)c1ccc(S(=O)(=O)N2CCc3ccccc32)cc1)c1nc2ccc(F)cc2s1`, the Potency was inconclusive [cytotoxic, single point]. With `Cc1cc(C(=O)NN=C2CCCC2)c2ccccc2n1` the Potency was inconclusive [cytotoxic, single point]. With `Cc1cccc(OCC(=O)N/N=C\C=C\c2ccc3c(c2)OCO3)c1C` the Potency was inconclusive [cytotoxic, single point]. In the case of `O=C1NC(Cc2c[nH]c3ccccc23)C(=O)N1Cc1ccccc1` (configuration not stated), the Potency is reported as “inactive”. In the case of `C=CCNC(=O)c1ccc(Cn2c(=S)[nH]c3cc4c(cc3c2=O)OCO4)cc1`, the Potency is reported as inconclusive [cytotoxic, single point]. For `Brc1ccc(/C=N/Nc2ccccc2)cc1`, the Potency was inconclusive [cytotoxic, full curve]. For `CCn1c(C)c(C(C)=O)c(N2CCN(C(c3ccccc3)c3ccccc3)CC2)nc1=S`, the Potency was inconclusive [cytotoxic, single point]. With `Cc1ccnc(N/C=C(/NC(=O)c2ccccc2)C(=O)N/N=C\c2ccc(Cl)cc2)n1` the Potency was “inactive”. With `CN(CCc1ccccc1)C(c1ccnc2ccccc12)c1nnnn1-c1ccc2c(c1)OCCO2` (configuration not stated) the Potency was inconclusive [cytotoxic, single point]. In the case of `COc1cccc2sc(Nc3nc(-c4ccncc4)cs3)nc12`, the Potency is reported as active: 2.31 µM. For `Cc1nn(-c2ccc(F)cc2)c(Cl)c1/C=C1\C(=O)Nc2ccccc21`, the Potency was active: 5.17 µM. With `CCN1CCN(C(=O)Cn2nc(C)c3sc4ccccc4c3c2=O)CC1` the Potency was “inactive”. With `O=c1[nH]c(=S)[nH]c2c1C(c1ccc(Cl)cc1)OC(C1CCCCC1)C2` (configuration not stated) the Potency was inconclusive [cytotoxic, single point]. For `O=C(NCCN1CCOCC1)c1cc(-c2cccs2)on1`, the Potency was inconclusive [cytotoxic, partial curve]. With `Cc1ccc2c(N)c(C(=O)c3ccccc3)sc2n1` the Potency was inconclusive [cytotoxic, partial curve]. In the case of `CCOC(=O)[C@@H]1[C@H]2COc3cc(OC)ccc3[C@H]2N2C(=O)N(c3ccc(C(F)(F)F)cc3)C(=O)[C@]12C`, the Potency is reported as inconclusive [cytotoxic, single point]. For `CC(C)n1cnc2c(Nc3cccc(Cl)c3)nc(N(CCO)CCCO)nc21`, the Potency was active: 14.6 µM. In the case of `O=C(Nc1cnccn1)c1ccc(F)cc1Cl`, the Potency is reported as “inactive”. For `COC(=O)C1=CN(c2ccc(OC)cc2OC)C(N)=C(C#N)C1c1ccccc1F` (configuration not stated), the Potency was active: 0.731 µM. In the case of `COc1ccc(Br)cc1/C=C/C(=O)c1ccc(NC(C)=O)cc1`, the Potency is reported as inconclusive [cytotoxic, full curve]. With `CCN(CC)CCOc1c(Br)ccc2c1sc1nc3n(c(=O)c12)CCC3` the Potency was inconclusive [cytotoxic, single point].
Potency means the concentration at half of the fitted maximal effect; tags describe the fitted curve by direction and shape.
